Assay results: PubChem BioAssay AID328 (DTP/NCI, 2004)
Several values for one entry are separate records, joined by “and”; a condition that tells them apart may be missing. Identical values can stand only once. This continues a long series; more values of the same kind are listed elsewhere. Toxic doses and inconclusive results are not listed. The calls were made as follows: active = survival T/C of 150% or more; inactive = T/C below 125% in these data. Starred links: 1 amine or outer side, 2 acyl side, 3 side chain; linkers in the order of their positions; H or OH if unused. Positions of bridges follow the written chain, without caps; N, C: chain ends. Non-standard residues stand in square brackets, D forms with d. Residues, ends and D or L forms follow the SMILES beside them. Chains are numbered I, II in the order given. Actinocin(9to1) = Cc1c2oc3c(C)ccc(C(=O)[*:1])c3nc-2c(C(=O)[*:2])c(N)c1=O; aThr = C[C@H](O)[C@H](N)C(=O)O; NMeV = CN[C@H](C(=O)O)C(C)C; Sar = CNCC(=O)O

Test system: BDF1 mice, P388 leukemia ip, median survival T/C
Test: NCI In Vivo Anticancer Drug Screen. Data for tumor model P388 Leukemia (intraperitoneal) in B6D2F1 (BDF1) mice
Details: endpoint: median survival time, higher = longer survival
Protocol: The antitumor activity of compounds was measured in mice bearing transplantable tumors. Survival or tumor size were measured and the results are expressed as the measurement made in the treated group (T) divided by the measurement made in the vehicle treated control group (C). The tumor model used in this assay is P388 Leukemia (intraperitoneal) in B6D2F1 (BDF1) mice

Measured: T/C

COC(=O)[C@@]12OC[C@]34[C@H]([C@@H](O)[C@@H]1O)[C@@]1(C)CC(=O)C(O)=C(C)[C@@H]1C[C@H]3OC(=O)[C@H](OC(=O)/C=C(\C)C(C)C)[C@@H]24
active: dose: 0.25 mg/kg/injection, schedule: Q01DX009 (ip), vehicle: saline with Tween-80 = 201 % of control | dose: 0.25 mg/kg/injection, schedule: Q01DX009 (ip), vehicle: saline 195 % of control | dose: 0.5 mg/kg/injection, schedule: Q01DX009 (ip), vehicle: saline with Tween-80 = 191 % of control | dose: 0.5 mg/kg/injection, schedule: Q01DX009 (ip), vehicle: saline 195 % of control | dose: 0.8 mg/kg/injection, schedule: Q01DX009 (ip), vehicle: saline + alcohol 199 % of control | dose: 1.0 mg/kg/injection, schedule: Q01DX009 (ip), vehicle: other 194 % of control | dose: 1.0 mg/kg/injection, schedule: Q01DX009 (ip), vehicle: saline with Tween-80 = 203 % of control and 204 % of control and 213 % of control | dose: 1.0 mg/kg/injection, schedule: Q01DX009 (ip), vehicle: saline 205 % of control | dose: 1.6 mg/kg/injection, schedule: Q01DX009 (ip), vehicle: saline + alcohol 205 % of control | dose: 2.0 mg/kg/injection, schedule: Q01DX009 (ip), vehicle: saline 195 % of control | dose: 266.0 micrograms/kg/injection, schedule: Q01DX009 (ip), vehicle: saline + alcohol 200 % of control | dose: 600.0 micrograms/kg/injection, schedule: Q01DX009 (ip), vehicle: saline + alcohol 215 % of control | dose: 720.0 micrograms/kg/injection, schedule: Q01DX009 (ip), vehicle: saline + alcohol 193 % of control | dose: 1200.0 micrograms/kg/injection, schedule: Q01DX009 (ip), vehicle: saline + alcohol 205 % of control

Cc1c2oc3c(C)ccc(C(=O)N[C@@H]4C(=O)N[C@H](C(C)C)C(=O)N5CCC[C@H]5C(=O)N(C)CC(=O)N(C)[C@@H](C(C)C)C(=O)O[C@H]4C)c3nc-2c(C(=O)N[C@@H]2C(=O)N[C@H](C(C)C)C(=O)N3CCC[C@H]3C(=O)N(C)CC(=O)N(C)[C@@H](C(C)C)C(=O)O[C@H]2C)c(N)c1=O (I: [aThr][dV]P[Sar][NMeV] / II: [aThr][dV]P[Sar][NMeV]; ester I:1-I:C, II:1-II:C; linker I:N-II:N via Actinocin(9to1))
active: dose: 0.15 mg/kg/injection, schedule: Q04DX003 (ip), vehicle: saline 222 % of control | dose: 0.2 mg/kg/injection, schedule: Q01DX001 (ip), vehicle: saline 204 % of control and 216 % of control | dose: 0.2 mg/kg/injection, schedule: Q04DX003 (ip), vehicle: saline 209 % of control | dose: 0.25 mg/kg/injection, schedule: Q04DX003 (ip), vehicle: saline + alcohol 212 % of control | dose: 0.25 mg/kg/injection, schedule: Q04DX003 (ip), vehicle: saline 203 % of control and 218 % of control | dose: 0.28 mg/kg/injection, schedule: Q01DX001 (ip), vehicle: saline 206 % of control | dose: 0.6 mg/kg/injection, schedule: Q01DX001 (ip), vehicle: saline 200 % of control | dose: 6.2 micrograms/kg/injection, schedule: Q01DX010 (ip), vehicle: saline 200 % of control | dose: 12.0 micrograms/kg/injection, schedule: Q01DX010 (ip), vehicle: saline 220 % of control | dose: 12.5 micrograms/kg/injection, schedule: Q01DX009 (ip), vehicle: saline + alcohol 218 % of control | dose: 12.5 micrograms/kg/injection, schedule: Q01DX009 (ip), vehicle: saline 205 % of control | dose: 12.5 micrograms/kg/injection, schedule: Q01DX010 (ip), vehicle: other 218 % of control | dose: 15.0 micrograms/kg/injection, schedule: Q03HX024 (ip), vehicle: saline 213 % of control | dose: 20.0 micrograms/kg/injection, schedule: Q03HX024 (ip), vehicle: saline 218 % of control | dose: 21.6 micrograms/kg/injection, schedule: Q01DX009 (ip), vehicle: saline + alcohol 205 % of control | dose: 25.0 micrograms/kg/injection, schedule: Q01DX009 (ip), vehicle: saline + alcohol 206 % of control | dose: 25.0 micrograms/kg/injection, schedule: Q01DX009 (ip), vehicle: water 221 % of control | dose: 25.0 micrograms/kg/injection, schedule: Q01DX010 (ip), vehicle: other 218 % of control | dose: 25.0 micrograms/kg/injection, schedule: Q01DX010 (ip), vehicle: saline 210 % of control | dose: 150.0 micrograms/kg/injection, schedule: Q04DX003 (ip), vehicle: water 206 % of control | dose: 200.0 micrograms/kg/injection, schedule: Q04DX003 (ip), vehicle: saline 213 % of control | dose: 300.0 micrograms/kg/injection, schedule: Q04DX003 (ip), vehicle: saline 205 % of control
